The results in this text go back to the supplement of paper PMC8183993.

Counter-ions that a name gives are not always drawn. ± gives the standard deviation of the averaged measurements. Over roughly 3,100 compounds, “mean cytoplasmic OPP incorporation (global translation) relative to DMSO” has its median near 100; the lowest 2% begin near 56. Some of the results follow.

The experiment has as its system U2OS. Put plainly: mean cytoplasmic OPP incorporation (global translation) relative to DMSO (% of DMSO); higher = more protein synthesis. The conditions noted are these: 10 µM; 24 h. The procedure:
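Primary image-based screen in U2OS cells: compounds at 10 uM for 24 h, then a 1 h o-propargyl-puromycin (OPP) pulse, click labelling, and high-throughput microscopy. Mean cytoplasmic OPP intensity and nuclei count were normalised to DMSO wells within each plate (DMSO = 100) and averaged over triplicate plates.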
Turning to `Cc1ncc(CO)c(CO)c1O` [Pyridoxine hydrochloride], the “mean cytoplasmic OPP incorporation” value was 88.9.
The value for `CN1CCc2cc(Cl)c(O)cc2[C@@H](c2ccccc2)C1` was 96.2.
On to `CC1(C)[C@H](C(=O)O)N2C(=O)C[C@H]2S1(=O)=O` [Sulbactam sodium (Unasyn)], for which the “mean cytoplasmic OPP incorporation” value came to 105.
Next, `CC1(C)[C@H](C(=O)O)N2C(=O)C[C@H]2S1(=O)=O` [Sulbactam]: 97.4.
Take `N[C@@H](CCC(=O)N[C@@H](CS)C(=O)NCC(=O)O)C(=O)O` [Glutathione]: the “mean cytoplasmic OPP incorporation” value was 102.
Next, `c1ccc(-c2[nH]ncc2-c2ccnc3ccccc23)nc1`: 93.2.
The value for `CCC1(c2ccccc2)NC(=O)N(C)C1=O` (centres undefined) [Mephenytoin] was 101; that for `NC(=O)CNCCC(c1ccccc1)c1ccccc1` [N20C hydrochloride] was 98.5.
For the molecule `CCc1c(C)[nH]c2c1C(=O)C(CN1CCOCC1)CC2` (centres undefined) [Molindone hydrochloride], the “mean cytoplasmic OPP incorporation” value was 97.
The value for `C#Cc1cccc(Nc2ncnc3cc4c(cc23)OCCOCCOCCO4)c1` [Icotinib] was 106 ± 3.9; that for `C=CC(=O)Nc1cc(Nc2nccc(-c3cn(C)c4ccccc34)n2)c(OC)cc1N(C)CCN(C)C` was 103; that for `C=C1C[C@@]2(O)O[C@@]3(C[C@H]2C(C)C)[C@@H](C)CC[C@@H]13` [Curcumol] was 101.
Next, `O=C(O)COCCN1CCN(C(c2ccccc2)c2ccc(Cl)cc2)CC1` (centres undefined) [Cetirizine dihydrochloride]: 99.9 ± 2.8; `Cn1cc(-c2cnn3c(N)c(Br)c([C@@H]4CCCNC4)nc23)cn1`: 72.9; `N[C@@H]1CONC1=O` [D-cycloserine]: 104.
Next, `CCCSc1nc(N[C@@H]2C[C@H]2c2ccc(F)c(F)c2)c2nnn([C@@H]3C[C@H](OCCO)[C@@H](O)[C@H]3O)c2n1` [Ticagrelor]: 99.7.
For `C=CC(=O)Nc1cccc(Nc2nc(Nc3ccc(Oc4ccnc(C(=O)NC)c4)cc3)ncc2F)c1`, the “mean cytoplasmic OPP incorporation” value came to 100.
Next, `CCCOC(=O)c1cc(O)c(O)c(O)c1` [N-Propyl gallate]: 123; `CC(C)c1cc(-c2n[nH]c(=O)n2-c2ccc3c(ccn3C)c2)c(O)cc1O` [Ganetespib (STA-9090)]: 70.9.
Take `O=C(O)C1CCCN(CCC=C(c2ccccc2)c2ccccc2)C1` (centres undefined): the “mean cytoplasmic OPP incorporation” value was 96.8.
With `CC(=O)O[C@]1(C(C)=O)CC[C@H]2[C@@H]3C=C(Cl)C4=CC(=O)[C@@H]5C[C@@H]5[C@]4(C)[C@H]3CC[C@@]21C` [Cyproterone acetate], the “mean cytoplasmic OPP incorporation” value stood at 113.6 ± 1.1.
`COc1cccc(CCc2ccccc2OCC[C@@H]2C[C@@H](O)CN2C)c1`: the “mean cytoplasmic OPP incorporation” value worked out at 113.
Turning to `Clc1ccc(CO/N=C(\Cn2ccnc2)c2ccc(Cl)cc2Cl)c(Cl)c1` [Oxiconazole Nitrate], the “mean cytoplasmic OPP incorporation” value came out at 99.2.
With `COc1ccc(-c2ccc3ncc4c(c3c2)n(-c2ccc(N3CCNCC3)c(C(F)(F)F)c2)c(=O)n4C)cn1`, the “mean cytoplasmic OPP incorporation” value worked out at 33.4 ± 16.
Regarding `C#C[C@]1(OC(C)=O)CC[C@H]2[C@@H]3CCC4=CC(=NO)CC[C@@H]4[C@H]3CC[C@@]21CC` (mixture of isomers) [Norgestimate], the “mean cytoplasmic OPP incorporation” value was determined as 106.
The value for `Clc1ccc(Cn2c(CN3CCCC3)nc3ccccc32)cc1` [Clemizole hydrochloride] was 111; that for `COc1cc2nc(N(C)CCCNC(=O)C3CCCO3)nc(N)c2cc1OC` (centres undefined) [Alfuzosin hydrochloride] was 106.
The value for `CC1(C)CC(=O)c2c(C(F)(F)F)nn(-c3ccc(C(N)=O)c(N[C@H]4CC[C@H](O)CC4)c3)c2C1` was 95.7.
The value for `O=C(O)/C=C/c1ccc(O)c(O)c1` [Caffeic acid] was 108.
On to `CCCCc1nc2cc(/C=C/C(=O)NO)ccc2n1CCN(CC)CC` [SB939 (Pracinostat)], for which the “mean cytoplasmic OPP incorporation” value turned out to be 57.8.
Next, `N=C(N)Nc1ccc(C(=O)Oc2ccc3cc(C(=N)N)ccc3c2)cc1` [Nafamostat mesylate]: 102; `NC(N)=Nc1ccc(Cl)cc1` [4-Chlorophenylguanidine hydrochloride]: 94.4; `O=C(O)Cc1nn(Cc2ccc(Br)cc2F)c(=O)c2ccccc12` [Statil]: 98.2.
Next, `CC(=O)Nc1nc2c(Oc3cc(-c4ccc(C(F)(F)F)cc4)ncn3)cccc2s1`: 102.
The value for `N[C@@H](Cc1c[nH]c2ccc(O)cc12)C(=O)O` [5-hydroxytryptophan (5-HTP)] was 106; that for `CN1C[C@@H]2C[C@H]1CN2c1cc2c(cc1F)c(=O)c(C(=O)O)cn2C1CC1` [Danofloxacin Mesylate] was 101; that for `CC(C)n1nc(-c2ccc3oc(N)nc3c2)c2c(N)ncnc21` was 53.5 ± 16.
In the case of `COC(=O)C1=C(C)NC(C)=C(C(=O)NCCCN2CCC(c3ccccc3)(c3ccccc3)CC2)C1c1ccc([N+](=O)[O-])cc1` (centres undefined), the “mean cytoplasmic OPP incorporation” value worked out at 99.9.
In the case of `Oc1ccc(OC2CCCCO2)cc1` (centres undefined) [Deoxyarbutin], the “mean cytoplasmic OPP incorporation” value worked out at 96.2.
